Results reported in paper PMC4336329 (PLoS ONE, 2015).
Out of some 310,000 compounds screened, about 14,000 (4.5%) showed an effect of 50% or more. The effect is printed as a negative number. The list shows a part of the results.

Biological target: human ether-à-go-go-related gene (hERG) potassium channel (human, UniProt Q12809)
Experiment: primary screen, population patch clamp on CHO cells stably expressing hERG
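Further: peak tail current of the secondary pulse compared with the same well before compound.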

human ether-à-go-go-related gene (hERG) potassium channel, sequence (Q12809 whole entry, looked up): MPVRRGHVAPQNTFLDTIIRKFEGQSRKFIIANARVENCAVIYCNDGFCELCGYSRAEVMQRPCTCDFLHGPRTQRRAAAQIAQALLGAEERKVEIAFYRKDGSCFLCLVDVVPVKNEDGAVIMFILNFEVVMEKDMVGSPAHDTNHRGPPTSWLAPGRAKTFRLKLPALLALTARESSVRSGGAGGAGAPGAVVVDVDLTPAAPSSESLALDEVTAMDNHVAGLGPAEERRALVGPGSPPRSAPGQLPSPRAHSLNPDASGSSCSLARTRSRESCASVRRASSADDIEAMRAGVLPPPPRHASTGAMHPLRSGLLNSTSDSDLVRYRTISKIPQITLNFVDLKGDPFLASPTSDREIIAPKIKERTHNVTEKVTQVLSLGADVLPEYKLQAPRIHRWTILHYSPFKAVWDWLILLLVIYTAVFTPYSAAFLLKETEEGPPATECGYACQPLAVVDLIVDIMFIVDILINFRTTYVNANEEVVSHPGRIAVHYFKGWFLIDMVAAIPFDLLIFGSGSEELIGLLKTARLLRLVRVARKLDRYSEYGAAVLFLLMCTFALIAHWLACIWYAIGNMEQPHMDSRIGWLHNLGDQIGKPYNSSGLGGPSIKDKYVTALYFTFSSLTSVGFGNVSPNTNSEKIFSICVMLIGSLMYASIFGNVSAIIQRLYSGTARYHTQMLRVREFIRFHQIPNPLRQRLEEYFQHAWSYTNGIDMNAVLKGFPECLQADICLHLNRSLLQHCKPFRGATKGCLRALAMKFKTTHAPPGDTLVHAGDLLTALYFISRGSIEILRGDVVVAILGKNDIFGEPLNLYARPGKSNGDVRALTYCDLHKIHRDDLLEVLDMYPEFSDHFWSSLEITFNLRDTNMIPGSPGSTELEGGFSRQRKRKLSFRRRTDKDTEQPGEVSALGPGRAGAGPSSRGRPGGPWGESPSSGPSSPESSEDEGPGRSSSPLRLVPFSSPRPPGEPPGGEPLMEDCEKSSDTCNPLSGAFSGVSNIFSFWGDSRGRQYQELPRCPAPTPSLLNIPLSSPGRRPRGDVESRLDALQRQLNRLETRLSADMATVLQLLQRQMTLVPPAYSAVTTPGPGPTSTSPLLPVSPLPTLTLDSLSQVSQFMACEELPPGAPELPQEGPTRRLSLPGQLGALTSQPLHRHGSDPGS

First: COc1ccc(N2Cc3ccccc3C2=NC(=O)c2ccc(C)cc2)cc1OC
Second: COc1ccc(/C=C/c2nc(N)nc(-c3ccccc3O)n2)cc1OC
The “hERG current change (%, negative = inhibition) at 10uM” value of the first is lower: 1.81% for the first, 10.2% for the second.

Compared with `CC1CN(S(=O)(=O)c2cccc(C(=O)NCC3COc4ccccc4O3)c2)CC(C)O1` (stereo not drawn), `O=C(NCc1ccncc1)c1cccc(S(=O)(=O)NCc2ccccc2)c1` is higher in “hERG current change (%, negative = inhibition) at 10uM” value: -41.3% for the first, -12.7% for the second.

First: CC(=O)NC(CC(=O)NCC(c1ccco1)N(C)C)c1ccccc1 (stereo not drawn)
Second: CCO.CCOC(=O)c1c(-c2ccccc2)oc2ccc(OC(C)C(=O)O)cc12 (stereo not drawn)
The “hERG current change (%, negative = inhibition) at 10uM” value of the first is higher: -3.13% for the first, -15% for the second.

Going from `CCOC(=O)C(=CNc1cc(C)nn1-c1ccc(Cl)cc1)C(=O)OCC` to `CCN(CC)c1ccc(-n2c(C)cc(C=O)c2C)cc1`, the “hERG current change (%, negative = inhibition) at 10uM” value rises from 2.31% to 6.33%.

Compared with `Cn1nc(C(F)(F)F)cc1C(=O)O`, `Cc1nnc(SCC(=O)Nc2cccc(C(F)(F)F)c2)[nH]c1=O` is lower in “hERG current change (%, negative = inhibition) at 10uM” value: 22.5% for the first, 8.84% for the second.

Compared with `CCc1ccc(NC(=O)C(C)OC(=O)c2ccc(NS(=O)(=O)c3ccc(C)c([N+](=O)[O-])c3)cc2)cc1` (stereo not drawn), `CC(=O)Nc1ccc(NC(=O)c2c([N+](=O)[O-])cnn2C)cc1` is higher in “hERG current change (%, negative = inhibition) at 10uM” value: 4.28% for the first, 17.9% for the second.

First: COc1ccc2[nH]cc(S(=O)(=O)c3ccc(C(C)C)cc3)c(=O)c2c1
Second: COc1ccc(OC(=O)c2cc(S(=O)(=O)N3CCCC3)ccc2Cl)cc1
The “hERG current change (%, negative = inhibition) at 10uM” value of the first is higher: 9.12% for the first, 3.96% for the second.

First: CC/C=C/C(=O)N1CC2(CC(c3cccc(NC(=O)CC(c4ccccc4)c4ccccc4)c3)=NO2)C[C@@H]1C(N)=O (stereo partly drawn)
Second: CN(C)c1ccc(C(CNC(=O)c2ccc(-c3ccccc3)cc2)N2CCOCC2)cc1 (stereo not drawn)
The “hERG current change (%, negative = inhibition) at 10uM” value of the first is higher: 14.6% for the first, 8.17% for the second.

Compared with `O=C(OCCN1C(=O)c2cccc3c(N4CCOCC4)ccc(c23)C1=O)c1ccc(Cl)cc1Cl`, `O=C(Cn1ncc(N2CCOCC2)c(Br)c1=O)c1ccc(Cl)cc1` is lower in “hERG current change (%, negative = inhibition) at 10uM” value: 5.21% for the first, -35% for the second.

First: CCCn1c(NCc2cc(OC)ccc2OC)nc2ccccc21
Second: COc1ccc(OC)c(CNC(=O)CCS(=O)(=O)c2ccc3c(c2)oc(=O)n3C)c1
The “hERG current change (%, negative = inhibition) at 10uM” value of the first is lower: -51.3% for the first, 5.32% for the second.

Compared with `Cl.Nc1ccc(N)c(C(=O)O)c1`, `O=C(O)c1ccccc1NS(=O)(=O)c1ccc2c(c1)OCCO2` is higher in “hERG current change (%, negative = inhibition) at 10uM” value: 9.65% for the first, 29.2% for the second.

Going from `O=C(NCC1CC1)Nc1ccccc1F` to `Cc1cc(OCC(=O)Nc2ccccc2C)no1`, the “hERG current change (%, negative = inhibition) at 10uM” value falls from 18.8% to 14%.

First: COc1ccc(S(=O)(=O)N2CCCc3ccccc32)cc1[N+](=O)[O-]
Second: Cc1ccc(NC(=O)CN2CCc3ccccc3C2)cc1C
The “hERG current change (%, negative = inhibition) at 10uM” value of the first is higher: -4.01% for the first, -5.18% for the second.

Going from `O=[N+]([O-])c1cccc(N=Cc2sc3ccccc3c2O)c1` to `COC(=O)Cn1c(=NC(=O)c2nc3ccccc3s2)sc2cc(S(N)(=O)=O)ccc21`, the “hERG current change (%, negative = inhibition) at 10uM” value falls from 35.2% to 6.74%.

Compared with `CCn1cc(CN2CCCC(CNS(=O)(=O)Cc3ccccc3)C2)cn1` (stereo not drawn), `CCc1ccccc1S(=O)(=O)Cc1ccc(C(=O)NCc2cccs2)o1` is lower in “hERG current change (%, negative = inhibition) at 10uM” value: 16.1% for the first, -22.5% for the second.

Going from `O=C(O)c1ccc(-c2noc(-c3cccc(F)c3)n2)cc1` to `Cn1c(-c2cccc(F)c2)nc2c1c(=O)[nH]c(=O)n2Cc1ccccc1`, the “hERG current change (%, negative = inhibition) at 10uM” value rises from -6.44% to 19.1%.

Going from `CN(c1cccc(NC(=O)CN(c2cccc(F)c2)S(C)(=O)=O)c1)S(C)(=O)=O` to `CCN(c1ccccc1)S(=O)(=O)c1ccc(C(=O)Nc2nccs2)cc1`, the “hERG current change (%, negative = inhibition) at 10uM” value rises from 3.24% to 8.62%.

Going from `CCOc1ccccc1NC1=CC(=O)CC(c2ccccc2)C1` (stereo not drawn) to `Cc1nc2ccccc2n1CC(O)COc1ccc(Br)cc1` (stereo not drawn), the “hERG current change (%, negative = inhibition) at 10uM” value falls from -16.9% to -49.9%.

First: O=S1(=O)CC2SC(=S)N(c3ccccc3)C2C1 (stereo not drawn)
Second: CC1CCN(c2ncnc3c2cnn3-c2ccccc2)CC1
The “hERG current change (%, negative = inhibition) at 10uM” value of the first is lower: 7.98% for the first, 21.2% for the second.

First: CC(C)(C)NC[C@H](O)COc1cccc2c1CCCC2=O.Cl
Second: COc1ccc(OC)c(/C=N/NC(=O)CC2C(=O)NN=C2C)c1 (stereo not drawn)
The “hERG current change (%, negative = inhibition) at 10uM” value of the first is lower: 6.43% for the first, 7.05% for the second.

Compared with `FC(F)(F)c1nnc2sc(-c3ccncc3)nn12`, `O=c1c(Cc2ccc(Cl)cc2)c(O)ccn1Cc1ccncc1` is higher in “hERG current change (%, negative = inhibition) at 10uM” value: 0.462% for the first, 0.535% for the second.

First: CC(C)NC(=O)CSc1nc(N)c(-c2ccccc2)c(=O)[nH]1
Second: COc1ccc(-n2c(=S)[nH]c3cc(C(=O)Nc4cccc(C)c4)ccc3c2=O)cc1
The “hERG current change (%, negative = inhibition) at 10uM” value of the first is higher: 9.83% for the first, 6.17% for the second.

First: CCc1c(C(=O)Nc2ccc(S(=O)(=O)N3CCOCC3)cc2)csc1C
Second: Cc1ccc(S(=O)(=O)N2CCOCC2)cc1NC(=O)CSc1nnc(N)s1
The “hERG current change (%, negative = inhibition) at 10uM” value of the first is lower: -22.3% for the first, 31.7% for the second.

First: O=C(Nc1nccs1)c1ccc(Cl)c([N+](=O)[O-])c1
Second: C=CCNC(=S)NNC(=O)c1cccn(Cc2ccc(Cl)c(Cl)c2)c1=O
The “hERG current change (%, negative = inhibition) at 10uM” value of the first is higher: 10.6% for the first, 2.91% for the second.

Going from `O=C(NN1CCOCC1)c1cc(S(=O)(=O)Nc2cccc(C(F)(F)F)c2)ccc1Cl` to `O=C(NCCC1=CCCCC1)C1CCCN(S(=O)(=O)c2ccc(F)cc2)C1` (stereo not drawn), the “hERG current change (%, negative = inhibition) at 10uM” value rises from 2.96% to 19.6%.

Going from `O=C1C=C(N2CCN(C3=CC(=O)CCC3)CC2)CCC1` to `Cc1cccc2[nH]c3c(N4CCN(C(=O)c5ccco5)CC4)ncnc3c12`, the “hERG current change (%, negative = inhibition) at 10uM” value falls from 8.21% to -27%.

Compared with `CC(C)(C)c1ccc(C(=O)Nc2c3c(nn2C(C)(C)C)CS(=O)(=O)C3)cc1`, `CNC(=S)N1N=C(c2ccc(Br)cc2)CC1c1ccc(N(C)C)cc1` (stereo not drawn) is lower in “hERG current change (%, negative = inhibition) at 10uM” value: 10.7% for the first, 1.96% for the second.

First: CCCNC(=S)N1CCC(NC(=O)C2CCCCC2)CC1
Second: CCNc1nc(NC(C)CC)nc(ON=C(C)C)n1 (stereo not drawn)
The “hERG current change (%, negative = inhibition) at 10uM” value of the first is higher: 8.48% for the first, -2.23% for the second.

With `Cc1cnc(CN(C)C(=O)c2cc(COc3c(F)cccc3F)on2)[nH]1` the “hERG current change (%, negative = inhibition) at 10uM” value was -9.29%.
